# PubChem BioAssay AID488969 (Vanderbilt High Throughput Screening Facility, 2010)
# Whole data set: some 110,000 compounds, median “z-score” near -0.1, cut for the highest 2% near 2. The list shows a part of the results.
# Biological target: Metabotropic glutamate receptor 8 (Rattus norvegicus) (UniProt P70579)
# Assay: mGluR8 Gi/Go-coupled signaling modulation – cell-based, rat, thallium flux, HTS, primary screen (AID 488969)
# Conditions: HEK293 rat mGluR8, GIRK (G protein-gated inwardly rectifying potassium channel) thallium flux, FluoZin2; at 10 µM; stronger effect = higher value; submaximal glutamate (EC20) added with thallium
# Chain of UniProt P70579 (P70579 whole entry, looked up): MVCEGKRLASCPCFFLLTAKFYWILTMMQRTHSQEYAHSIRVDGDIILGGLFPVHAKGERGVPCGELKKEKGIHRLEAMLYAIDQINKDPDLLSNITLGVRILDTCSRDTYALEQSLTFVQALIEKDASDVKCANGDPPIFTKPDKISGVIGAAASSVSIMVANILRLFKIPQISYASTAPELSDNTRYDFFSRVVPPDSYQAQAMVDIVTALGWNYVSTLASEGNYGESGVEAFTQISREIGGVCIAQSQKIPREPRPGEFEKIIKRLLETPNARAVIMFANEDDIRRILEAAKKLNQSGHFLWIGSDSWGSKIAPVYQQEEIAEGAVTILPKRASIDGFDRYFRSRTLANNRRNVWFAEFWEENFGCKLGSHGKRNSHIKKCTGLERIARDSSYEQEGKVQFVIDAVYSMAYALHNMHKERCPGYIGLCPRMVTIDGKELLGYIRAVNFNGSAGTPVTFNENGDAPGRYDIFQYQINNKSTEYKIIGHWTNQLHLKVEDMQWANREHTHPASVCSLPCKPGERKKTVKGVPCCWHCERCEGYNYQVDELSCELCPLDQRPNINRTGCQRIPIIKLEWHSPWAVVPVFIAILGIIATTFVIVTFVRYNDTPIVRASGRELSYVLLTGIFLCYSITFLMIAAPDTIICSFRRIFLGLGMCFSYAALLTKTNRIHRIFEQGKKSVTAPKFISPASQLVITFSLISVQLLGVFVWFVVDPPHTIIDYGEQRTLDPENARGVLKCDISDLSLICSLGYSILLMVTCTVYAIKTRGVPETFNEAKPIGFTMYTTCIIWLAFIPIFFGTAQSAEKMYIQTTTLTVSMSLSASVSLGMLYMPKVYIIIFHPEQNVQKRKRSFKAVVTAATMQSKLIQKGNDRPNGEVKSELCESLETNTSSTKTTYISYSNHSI
row,SMILES,z-score
1,COc1ccc(Cl)cc1NC(=O)CN(c1ccccc1)S(=O)(=O)N(C)C,-0.969
2,COc1ccc(NC(=O)c2ccc3nc(-c4ccccc4)c(-c4ccccc4)nc3c2)c(OC)c1,-0.218
3,Cc1cccc(/C=N\Nc2cn[nH]c(=O)c2Cl)c1,-0.328
4,CCSc1ncc(/C=N/Nc2ccc(Cl)cc2)n1C,-0.2
5,COc1ccc(C(=O)NCC(=O)OCC(=O)Nc2c(C)n(C)n(-c3ccccc3)c2=O)cc1,0.287
6,Cc1ccnc(SCCn2c(N3CCCCC3)nc3c2c(=O)[nH]c(=O)n3C)n1,-0.0599
7,COc1cccc(/C=N/NC(=O)CSc2nnc(C)n2-c2ccccc2)c1O,-0.123
8,Cc1ccc(NCN2C(=O)C(=O)c3ccccc32)nc1,-0.275
9,O=C1/C(=C\c2ccc(-c3ccccc3[N+](=O)[O-])o2)C(c2ccccc2)=NN1c1ccccc1,0.149
10,COc1ccc(OC)c(C2SCCN2S(C)(=O)=O)c1 (stereo not given),0.0293
11,CSc1cccc(NC(=O)c2cnccn2)c1,-0.00885
12,COc1ccc(C(=O)Nc2cc(C)ccc2NC(=O)COc2ccccc2)cc1,0.2
13,CC(C)C(=O)N(c1ccc2oc(=O)sc2c1)S(=O)(=O)c1ccccc1,-0.0559
14,COc1ccc(NC(=O)c2c3c(nc4ccccc24)CCC3)cc1,-0.169
15,CC(C)(C)Nc1nc(NN)nc(NC(C)(C)C)n1,-0.766
16,Cc1ccc(Nc2nc(N)nc(CN3CCCCCC3)n2)c(C)c1,-0.236
17,COc1ccc(S(=O)(=O)N2CCCC2C(=O)Nc2nc3c(s2)CCCC3)cc1 (stereo not given),-0.71
18,NC(=O)C1CCN(C(=O)COc2ccc(S(=O)(=O)NCc3ccccc3)cc2Cl)CC1,-0.343
19,O=C(Nc1ccccc1N1CCN(C(=O)c2ccc(Cl)cc2)CC1)c1ccc(Br)cc1,-0.729
20,Cc1nc2ccccc2c(=O)n1CC(=O)N1CCOCC1,0.167
21,O=C(O)CCC(=O)N1CCN(c2ccc(C(=O)c3ccc(F)cc3)cc2)CC1,0.165
22,Cn1nnnc1SCC(=O)N1c2ccccc2Sc2ccccc21,-0.205
23,O=C(Nc1ccc(Br)cc1F)c1cccnc1,0.587
24,CCOC(=O)NC(NCc1ccccc1Cl)(C(F)(F)F)C(F)(F)F,-0.0808
25,O=C(O)c1ccc(NC(CSCc2ccc(F)cc2)C(=O)O)c([N+](=O)[O-])c1 (stereo not given),-0.00656
26,CCCN1C2CCCC1CC(NC(=O)Nc1ccc(C(C)C)cc1)C2 (stereo not given),0.407
27,O=C(CSc1ccc2nnc(-c3ccccn3)n2n1)N1CCN(c2ccccc2)CC1,-1.21
28,Cc1ccc(S(=O)(=O)Nc2ccc3nc(-c4cccn4C)[nH]c3c2)cc1,-0.571
29,COc1cccc(C2c3c(oc4cc(C)c(C)cc4c3=O)C(=O)N2CCCN(C)C)c1 (stereo not given),-0.119
30,O=[N+]([O-])c1cccc(/C([O-])=C(/C(=S)Nc2ccccc2)[n+]2ccccc2)c1,-0.121
